# Results as given in PubChem BioAssay (NCATS).
# Values joined by “and” are separate entries in the source; they are usually repeats but may differ in a detail not shown here. Equal values may be shown once. Some of the results follow. These are further read-outs of the screen, such as a control signal, another cell line or another target. No call is given for them. For some of these results: The list favours compounds with an active or inconclusive main result. For some of these results: Words in brackets tell the shape of the fitted curve; partial curves, single points and poor fits give uncertain potencies.
# What was measured:
# [1] = qHTS drug screen for cell cycle checkpoint inhibitors in PARPi-resistant BRCA-mutant ovarian cancer cell lines. (AID 1963452); conditions: PEO1/OlaR viability, CellTiter-Glo luminescence, 96 h
# Summary of the method: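 PEO1, PEO4 and PEO1/OlaR ovarian cancer cells, 600 per well, exposed 96 h at 37C to a dilution series. Viability read by CellTiter-Glo luminescence, normalized to DMSO and empty wells; activity summarized as Z-AUC.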
# [2] = qHTS assay for small molecule antagonists of peroxisome proliferator-activated receptor delta signaling (AID 588535); conditions: HEK293T PPARd-UAS-bla, beta-lactamase FRET ratio, 18 h; 460 nm channel;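 further: cells co-treated with a PPAR-delta agonist as stimulator during compound exposure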
# Summary of the method: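 Beta-lactamase reporter read-out (405 nm excitation, 460/530 nm emission) after CCF4 loading for 2 hrs at RT. HEK293T PPAR-delta-UAS-bla cells, 2% charcoal/dextran FBS, compounds for 18 hrs at 37 C. Hill fit gave IC50 and efficacy.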
# [3] = qHTS assay for small molecule antagonists of peroxisome proliferator-activated receptor gamma signaling (AID 588537); conditions: HEK293 PPARg-UAS-bla, beta-lactamase ratio, antagonist mode; measured here: W460 blue channel
# Summary of the method: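 Read-out: CCF4 fluorescence (ex 405, em 460/530 nm) after 2 h at RT. Cells were HEK293 carrying a UAS-bla reporter and treated 16 h at 37 C with compound plus rosiglitazone (50 nM final). Normalized to rosiglitazone and DMSO.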
# [4] = qHTS for identification of novel therapeutic agents for treatment of microphthalmiaassociated transcription factor (MiT) renal cell carcinoma (RCC) (AID 1963991); conditions: CellTiter-Glo, 48 h, stronger effect = lower value;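 further: curves scaled with 100% = DMSO viability and 0% = empty wells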
# Summary of the method: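 UOK109/UOK124/UOK145 (TFE3 fusions, three partners); 500 cells/well; MIPE v4.0, 1912 cpds, 11 conc.; 48 h, 37 C; CellTiter-Glo, 15 min RT; lum. Norm.: DMSO 100%, empty 0%.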
# [5] = S16 Schwann cell PMP22 intronic element beta-lactamase assay (AID 624044); conditions: S16 rat Schwann cells, PMP22 element beta-lactamase FRET, 24 h; further: nearly all actives have a fitted effect of over 15% in size
# Summary of the method: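 Beta-lactamase reporter under a PMP22 intronic regulatory element in stable S16 rat Schwann cells; 24 h compound exposure. 460 nm blue signal normalized between DMSO (0%) and potassium clavulanate, with 535 nm FRET tracking viability; curves classed by r2 and response.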
# [6] = qHTS Validation Assay to Find Inhibitors of Chronic Active B-Cell Receptor Signaling (AID 485345); conditions: ABC-DLBCL cells, chronic BCR signaling reporter; measured here: CBR control luciferase (viability counter)
# Summary of the method: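 TMD8 ABC-DLBCL cells stably carrying doxycycline-inducible IkappaBalpha–green luciferase fusion plus unfused red luciferase; compounds 46 uM to 3 nM, 4 h at 37C with doxycycline. Corrected green/red luminescence ratio normalized to 10 uM MG-132 and basal cell wells; curves fitted.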
# [7] = Nrf2 qHTS screen for inhibitors: Validation (AID 493153); conditions: A549 ARE-Fluc reporter, 18-24 h; AC50: CellTiter-Fluor fluorescence read, measured here: cytotoxicity CellTiter-Fluor AC50; viability change: measured here: cytotoxicity max response
# Summary of the method: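 In this counterscreened reporter format, each well gives two signals: CellTiter-Fluor fluorescence for cytotoxicity and ARE-luciferase luminescence for Nrf2 function. A549 ARE_Fluc cells in 5% FBS OPTI-MEM were exposed to compound titrations for 18-24 h.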
# [8] = qHTS assay for small molecule antagonists of vitamin D receptor signaling (AID 588541); conditions: HEK293T VDR-UAS-bla, beta-lactamase ratio, antagonist mode; measured here: W460 blue channel (cell viability)
# [9] = qHTS assay for small molecule antagonists of retinoid X receptor alpha signaling (AID 588546); conditions: HEK293T RXRa-UAS-bla, beta-lactamase ratio, antagonist mode; measured here: W530 green channel, cytotoxicity proxy;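 further: cells stimulated with 9-cis-retinoic acid as agonist; on the % scale 0 is the no-effect control and ±100 the full control effect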
# Summary of the method: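 Beta-lactamase reporter inhibition, read as CCF4 fluorescence ratio (ex 405, em 460/530 nm) after 2 h at RT. HEK293T UAS-bla cells, 2500/well, were stimulated with 9-cis-RA at 500 or 100 nM final alongside test compound for 18 h at 37 C.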
# [10] = measured here: PEO1 parental viability
# [11] = TFE3-RCC UOK109 viability, measured here: UOK109 Z-AUC
# [12] = TFE3-RCC viability, measured here: UOK124 Z-AUC
# [13] = TFE3-RCC viability, measured here: UOK145 Z-AUC
# Tags describe the fitted curve by direction and shape.
smiles,measurement,setting,value
NS(=O)(=O)OC[C@@H]1C[C@@H](n2ccc3c(N[C@H]4CCc5ccccc54)ncnc32)C[C@@H]1O,AC50,[1]; [10],"490 nM [falling, full curve]"
same,AC50,[1]; measured here: PEO4 viability,"138 nM [falling, full curve]"
CN1CCN(C2CCC(n3cc(-c4ccc(Oc5ccccc5)cc4)c4c(N)ncnc43)CC2)CC1 (configuration not stated),AC50,[1]; [10],"871 nM [falling, partial curve]"
same,AC50,[1]; measured here: PEO4 viability,"1740 nM [falling, full curve]"
O=c1[nH]cc(F)c(=O)[nH]1,max response,[2],64.2%
same,AC50,[3],"44.7 µM [rising, single point]"
same,z-score,[4]; [11],0.0573
same,z-score,[4]; [12],0.734
same,z-score,[4]; [13],0.133
Cc1cc(/C=C\c2ccc3cc(N(C)C)ccc3[n+]2C)c(C)n1-c1ccccc1,AC50,[5]; measured here: 460 nm blue channel,"2.13 µM [falling, partial curve, poor fit]"
same,AC50,[5]; measured here: 530 nm viability channel,"0.0891 µM [falling, full curve, poor fit]"
CC(=O)Nc1cccc(-n2c(=O)n(C3CC3)c(=O)c3c(Nc4ccc(I)cc4F)n(C)c(=O)c(C)c32)c1,z-score,[4]; [11],-1.27
same,z-score,[4]; [12],-0.397
same,z-score,[4]; [13],-0.0729
CNc1ncnc2c1ncn2[C@@H]1O[C@H](CO)[C@@H](O)[C@H]1O,AC50,[6],"14.6 µM [rising, partial curve]"
C[C@H]1c2cccc(O)c2C(O)=C2C(=O)[C@]3(O)C(O)=C(C(N)=O)C(=O)[C@@H](N(C)C)[C@@H]3[C@@H](O)[C@@H]21,viability change,[7],6.39%
N=c1ccn2c(n1)O[C@H]1[C@H](O)[C@@H](CO)O[C@H]12,viability change,[7],-5.69%
O=C1c2cccc(O)c2C(=O)c2c(O)cccc21,max response,[2],126%
COc1cccc2c1C(=O)c1c(O)c3c(c(O)c1C2=O)C[C@@](O)(C(=O)CO)C[C@@H]3O[C@H]1C[C@H](N)[C@H](O)[C@H](C)O1,max response,[2],-129%
same,AC50,[3],"7.08 µM [falling, full curve] and 12.6 µM [falling, full curve]"
same,AC50,[8],"8.91 µM [falling, full curve, poor fit] and 8.91 µM [falling, full curve]"
same,max response,[9],-0.844%
